Measurements from the supplement of paper PMC11741623.
The other results are listed elsewhere or left out. Interaction screen of human proteins with wild-type SARS-CoV-2 proteins by split-DHFR complementation in yeast, 1 µg/mL methotrexate. Value = fitness of the pair (three or more lineages) minus that of the viral protein without a human partner, on a scale set by negative (0) and fused positive (1) controls, mean of up to three cultures; higher = more likely to interact. Active = false discovery rate below 0.05 (one-sided t-test) in at least one culture. Nearly all pairs are not hits, and differences among them are mostly noise (correlation between cultures about 0.3); most hits were seen in one culture only. Human sequences are the Swiss-Prot entries looked up by gene name; the clone may be another isoform. NSP2 values were corrected by the authors for a growth advantage. Listed are human proteins with a hit and a random twelfth of the others.

B1: RNF8, O76064 (protein)
chain: MGEPGFFVTGDRAGGRSWCLRRVGMSAGWLLLEDGCEVTVGRGFGVTYQLVSKICPLMISRNHCVLKQNPEGQWTIMDNKSLNGVWLNRARLEPLRVYSIHQGDYIQLGVPLENKENAEYEYEVTEEDWETIYPCLSPKNDQMIEKNKELRTKRKFSLDELAGPGAEGPSNLKSKINKVSCESGQPVKSQGKGEVASTPSDNLDPKLTALEPSKTTGAPIYPGFPKVTEVHHEQKASNSSASQRSLQMFKVTMSRILRLKIQMQEKHEAVMNVKKQTQKGNSKKVVQMEQELQDLQSQLCAEQAQQQARVEQLEKTFQEEEQHLQGLEIAQGEKDLKQQLAQALQEHWALMEELNRSKKDFEAIIQAKNKELEQTKEEKEKMQAQKEEVLSHMNDVLENELQCIICSEYFIEAVTLNCAHSFCSYCINEWMKRKIECPICRKDIKSKTYSLVLDNCINKMVNNLSSEVKERRIVLIRERKAKRLF
B2: XKR6, Q5GH73 (protein)
chain: MAAKSDGGGVGVGFAQLHNLDEAVGSGGEEDGEPGGGGCGGGGDGSEPGESSSMHICHCCNTSSCYWGCRSACLRSLLGRKPRRSAAADGGDQPLQPPAAPGAGRQPPTPSAARPEPPPPQVERPWLDCLWIVLALLVFFGDVGTDLWLALDYYRKGDYVYFGLTLFFVLVPSLLVQSLSFRWFVQDYTGGGLGAVEGLTSRGPPMMGAGYVHGAARGGPGVRVSPTPGAQRLCRLSVWIWQSVIHLLQMGQVWRYIRTMYLGIQSQRRKEHQRRFYWAMMYEYADVNMLRLLETFLESAPQLVLQLYIMLQKNSAETLPCVSSVTSLMSLAWVLASYHKLLRDSRDDKKSMSYRGAIIQVFWRLFTISSRVISFALFASIFQLYFGIFVVVHWCAMAFWIIHGGTDFCMSKWEEILFNMVVGIVYIFCWFNVKEGRTRYRMFAYYTIVLTENAALTFLWYFYRDPETTDSYAVPALCCVFISFVAGIAMMLLYYGVLHPTGPRAKILASSCCAELLWGIPLPPDVEPMAPEIPGYRGTQVTPTRAVTEQQEDLTADTCLPVFQVRPMGPPTPLGRPYLPEGPLIKIDMPRKRYPAWDAHFVDRRLRRTINILQYVTPTAVGIRYRDGPLLYELLQYESSL
B3: ABHD16A, O95870 (protein)
chain: MAKLLSCVLGPRLYKIYRERDSERAPASVPETPTAVTAPHSSSWDTYYQPRALEKHADSILALASVFWSISYYSSPFAFFYLYRKGYLSLSKVVPFSHYAGTLLLLLAGVACLRGIGRWTNPQYRQFITILEATHRNQSSENKRQLANYNFDFRSWPVDFHWEEPSSRKESRGGPSRRGVALLRPEPLHRGTADTLLNRVKKLPCQITSYLVAHTLGRRMLYPGSVYLLQKALMPVLLQGQARLVEECNGRRAKLLACDGNEIDTMFVDRRGTAEPQGQKLVICCEGNAGFYEVGCVSTPLEAGYSVLGWNHPGFAGSTGVPFPQNEANAMDVVVQFAIHRLGFQPQDIIIYAWSIGGFTATWAAMSYPDVSAMILDASFDDLVPLALKVMPDSWRGLVTRTVRQHLNLNNAEQLCRYQGPVLLIRRTKDEIITTTVPEDIMSNRGNDLLLKLLQHRYPRVMAEEGLRVVRQWLEASSQLEEASIYSRWEVEEDWCLSVLRSYQAEHGPDFPWSVGEDMSADGRRQLALFLARKHLHNFEATHCTPLPAQNFQMPWHL

molecular target: SARS-CoV-2 E; experiment: yeast fitness gain over the viral ORF with no human partner (scaled fitness); higher = more likely to interact
Description: (§1)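 Split mouse DHFR complementation in pooled diploid yeast: human ORFeome clones carry one fragment and viral ORFs the other; barcoded lineages compete in 1 µg/mL methotrexate and fitness is read by barcode sequencing in up to three cultures.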

Binder | yeast fitness gain
B1 | inactive: -0.0279
B2 | inactive: 0.00922
B3 | inactive: 0.323

molecular target: SARS-CoV-2 M; experiment: as above
Description: as §1

Binder | yeast fitness gain
B1 | inactive: 0.0736
B2 | inactive: -0.0233
B3 | inactive: -0.0189

molecular target: SARS-CoV-2 N; experiment: as above
Description: as §1

Binder | yeast fitness gain
B1 | inactive: -0.0985
B2 | inactive: -0.0453
B3 | inactive: 0.0436

molecular target: SARS-CoV-2 NSP1; experiment: as above
Description: as §1

Binder | yeast fitness gain
B1 | inactive: -0.0818
B2 | inactive: -0.0501
B3 | inactive: 0.0405

molecular target: SARS-CoV-2 NSP10; experiment: as above
Description: as §1

Binder | yeast fitness gain
B1 | inactive: -0.017
B2 | inactive: -0.000613
B3 | inactive: 0.0134

molecular target: SARS-CoV-2 NSP12; experiment: as above
Description: as §1

Binder | yeast fitness gain
B1 | inactive: -0.0751
B2 | inactive: 0.0544
B3 | inactive: -0.0175

molecular target: SARS-CoV-2 NSP13; experiment: as above
Description: as §1

Binder | yeast fitness gain
B1 | inactive: -0.0795
B2 | inactive: 0.00416
B3 | inactive: -0.0156

molecular target: SARS-CoV-2 NSP14; experiment: as above
Description: as §1

Binder | yeast fitness gain
B1 | inactive: -0.453
B2 | inactive: -0.0461

molecular target: SARS-CoV-2 NSP15; experiment: as above
Description: as §1

Binder | yeast fitness gain
B1 | inactive: 0.0871
B2 | inactive: -0.0305
B3 | inactive: 0.0809

molecular target: SARS-CoV-2 NSP16; experiment: as above
Description: as §1

Binder | yeast fitness gain
B1 | inactive: 0.00789
B2 | inactive: 0.000545
B3 | inactive: -0.0676

molecular target: SARS-CoV-2 NSP2; experiment: as above
Description: as §1

Binder | yeast fitness gain
B1 | inactive: -0.155
B2 | inactive: -0.147
B3 | inactive: -0.12

molecular target: SARS-CoV-2 NSP5; experiment: as above
Description: as §1

Binder | yeast fitness gain
B1 | inactive: -0.00676
B2 | inactive: 0.0145
B3 | inactive: 0.0496

molecular target: SARS-CoV-2 NSP6; experiment: as above
Description: as §1

Binder | yeast fitness gain
B1 | inactive: 0.0314
B2 | inactive: 0.00249
B3 | inactive: 0.0339

molecular target: SARS-CoV-2 NSP7; experiment: as above
Description: as §1

Binder | yeast fitness gain
B1 | inactive: 0.0795
B2 | inactive: 0.0563
B3 | inactive: 0.0277

molecular target: SARS-CoV-2 NSP8; experiment: as above
Description: as §1

Binder | yeast fitness gain
B1 | inactive: -0.0107
B2 | inactive: 0.0652
B3 | inactive: 0.0121

molecular target: SARS-CoV-2 NSP9; experiment: as above
Description: as §1

Binder | yeast fitness gain
B1 | inactive: 0.0103
B2 | inactive: 0.0724
B3 | inactive: 0.0194

molecular target: SARS-CoV-2 ORF10; experiment: as above
Description: as §1

Binder | yeast fitness gain
B1 | inactive: -0.0101
B2 | inactive: -0.00618
B3 | inactive: -0.0488

molecular target: SARS-CoV-2 ORF3A; experiment: as above
Description: as §1

Binder | yeast fitness gain
B1 | inactive: 0.0656
B2 | inactive: -0.058
B3 | inactive: 0.00201

molecular target: SARS-CoV-2 ORF3B; experiment: as above
Description: as §1

Binder | yeast fitness gain
B1 | inactive: -0.0626
B2 | inactive: -0.0446
B3 | inactive: 0.0205

molecular target: SARS-CoV-2 ORF6; experiment: as above
Description: as §1

Binder | yeast fitness gain
B1 | inactive: 0.019
B2 | inactive: 0.0369
B3 | active: 0.259

molecular target: SARS-CoV-2 ORF7A; experiment: as above
Description: as §1

Binder | yeast fitness gain
B1 | inactive: -0.025
B2 | inactive: -0.00358
B3 | inactive: 0.0494

molecular target: SARS-CoV-2 ORF7B; experiment: as above
Description: as §1

Binder | yeast fitness gain
B1 | inactive: 0.00347
B2 | inactive: 0.00473
B3 | inactive: 0.0921

molecular target: SARS-CoV-2 ORF8; experiment: as above
Description: as §1

Binder | yeast fitness gain
B1 | inactive: 0.00598
B2 | inactive: 0.0244
B3 | inactive: -0.00612

molecular target: SARS-CoV-2 ORF9B; experiment: as above
Description: as §1

Binder | yeast fitness gain
B1 | inactive: -0.000426
B2 | inactive: -0.015
B3 | inactive: 0.0563

molecular target: SARS-CoV-2 ORF9Bwu (the 73-codon ORF); experiment: as above
Description: as §1

Binder | yeast fitness gain
B1 | inactive: -0.0394
B2 | inactive: 0.0706
B3 | inactive: 0.0584

molecular target: SARS-CoV-2 S; experiment: as above
Description: as §1

Binder | yeast fitness gain
B1 | inactive: 0.0582
B2 | inactive: 0.0299
B3 | inactive: 0.035

molecular target: SARS-CoV-2 NSP4; experiment: as above
Description: as §1

Binder | yeast fitness gain
B2 | inactive: -0.0164
B3 | inactive: 0.237
